This is one part of the list. Many values rest on one well or one pass, so single values are uncertain.
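Further: cells treated in 1,536-well plates, then fixed and DAPI-stained, with nuclei counted from automated high-throughput microscope images.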

The subject of one assay is SkMel5. Description: cell count relative to DMSO control; melanoma cells; higher = more viable cells. Particulars: library dose: standard library concentration; 72 h.
`CCCS(=O)(=O)Nc1ccc(F)c(C(=O)c2c[nH]c3ncc(Cl)cc23)c1F` + Oc1nc(-c2ccc(C(F)(F)F)cc2)nc2c1CSCC2 [XAV939] (first compound 0.4 µM, partner dose 10 µM) came in with a cell count of 67.2%.
In turn, `CN(c1ncccc1CNc1nc(Nc2ccc3c(c2)CC(=O)N3)ncc1C(F)(F)F)S(C)(=O)=O` + COc1cc(N2CCC(N3CCN(C)CC3)CC2)ccc1Nc1ncc(Cl)c(Nc2ccccc2S(=O)(=O)C(C)C)n1 [NVP-TAE684] (first compound 0.4 µM, partner dose 0.4 µM) showed a cell count of 45.8%.
The same measure, in the same setting: as for `CCCS(=O)(=O)Nc1ccc(F)c(C(=O)c2c[nH]c3ncc(Cl)cc23)c1F` + c1cc(-c2cnn3cc(-c4ccc(OCCN5CCCCC5)cc4)cnc23)ccn1 [Dorsomorphin] (first compound 0.4 µM, partner dose 2 µM), the figure is 57.9%; as for `NC1(c2ccc(-c3nc4ccn5c(=O)[nH]nc5c4cc3-c3ccccc3)cc2)CCC1` + O=C1NC(=O)/C(=C/c2ccc(-c3ccc(F)cc3O)o2)S1 [AS252424] (first compound 2 µM, partner dose 5 µM), 61.6%.
Same read-out and setting: as for `CCCS(=O)(=O)Nc1ccc(F)c(C(=O)c2c[nH]c3ncc(Cl)cc23)c1F` + Cc1cc([N+](=O)[O-])ccc1NS(=O)(=O)c1cc(Cl)ccc1Cl [FH535] (first compound 0.4 µM, partner dose 5 µM), the figure is 65.5%; as for `CN(c1ncccc1CNc1nc(Nc2ccc3c(c2)CC(=O)N3)ncc1C(F)(F)F)S(C)(=O)=O` + CC(C)CCN1c2nc(Nc3cc(F)c(O)c(F)c3)ncc2N(C)C(=O)C1C [BID1870] (first compound 0.4 µM, partner dose 1 µM), 75.2%.

A further assay deals with UACC257. The assay is described as above. Particulars: library dose: standard library concentration; 72 h.
`CCCS(=O)(=O)Nc1ccc(F)c(C(=O)c2c[nH]c3ncc(Cl)cc23)c1F` + NC(=O)Nc1cc(-c2cccc(F)c2)sc1C(=O)N[C@H]1CCCNC1 [AZD7762] (first compound 0.4 µM, partner dose 0.1 µM) had a cell count of 80.8%.
As to `CN(c1ncccc1CNc1nc(Nc2ccc3c(c2)CC(=O)N3)ncc1C(F)(F)F)S(C)(=O)=O` + O=c1cc(-c2cccc3c2Sc2ccccc2S3)oc(N2CCOCC2)c1 [KU55933] (first compound 0.4 µM, partner dose 5 µM), the cell count stood at 84.7%.
`CN(c1ncccc1CNc1nc(Nc2ccc3c(c2)CC(=O)N3)ncc1C(F)(F)F)S(C)(=O)=O` + O=C(O)C(=O)Nc1sc2c(c1C(=O)O)CCNC2 [TCS401] (first compound 0.4 µM, partner dose 8.33333 µM) had a cell count of 87.9%.
The same measure, in the same setting: as for `NC1(c2ccc(-c3nc4ccn5c(=O)[nH]nc5c4cc3-c3ccccc3)cc2)CCC1` + O=S(=O)(c1ccccc1)N(CC(F)(F)F)c1ccc(C(O)(C(F)(F)F)C(F)(F)F)cc1 [T0901317] (first compound 2 µM, partner dose 7 µM), the figure is 75.6%.
For the molecule `CCCS(=O)(=O)Nc1ccc(F)c(C(=O)c2c[nH]c3ncc(Cl)cc23)c1F` + O=S(=O)(c1ccccc1)N(CC(F)(F)F)c1ccc(C(O)(C(F)(F)F)C(F)(F)F)cc1 [T0901317] (first compound 0.4 µM, partner dose 7 µM), the cell count was determined as 75.3%.
In turn, `CN(c1ncccc1CNc1nc(Nc2ccc3c(c2)CC(=O)N3)ncc1C(F)(F)F)S(C)(=O)=O` + O=C(Nc1ccccc1)c1cc([N+](=O)[O-])ccc1Cl [GW9662] (first compound 0.4 µM, partner dose 10 µM) gave a cell count of 80.3%.
Same read-out and setting: then `CS(=O)(=O)c1ccc(C(=O)Nc2ccc(Cl)c(-c3ccccn3)c2)c(Cl)c1` [vismodegib] + COc1cc2ncnc(Nc3ccc(Oc4ccccc4)cc3)c2cc1OC [SrcI1] (first compound 5 µM, partner dose 10 µM), with 88.8%; and `NC1(c2ccc(-c3nc4ccn5c(=O)[nH]nc5c4cc3-c3ccccc3)cc2)CCC1` + O=C(O)C(=O)Nc1sc2c(c1C(=O)O)CCNC2 [TCS401] (first compound 2 µM, partner dose 8.33333 µM), with 82.8%; and `NC1(c2ccc(-c3nc4ccn5c(=O)[nH]nc5c4cc3-c3ccccc3)cc2)CCC1` + COc1ccc(COc2ccc(Cc3cnc(N)nc3N)cc2OC)cc1 [GW2580] (first compound 2 µM, partner dose 5 µM), with 74.7%.
Regarding `CS(=O)(=O)c1ccc(C(=O)Nc2ccc(Cl)c(-c3ccccn3)c2)c(Cl)c1` [vismodegib] + Cn1cc(/C=C2\C(=O)Nc3cccnc32)c2ccccc21 [GW441756] (first compound 5 µM, partner dose 2 µM), the cell count was determined as 85.9%.
In turn, `NC1(c2ccc(-c3nc4ccn5c(=O)[nH]nc5c4cc3-c3ccccc3)cc2)CCC1` + CCN(CC)CCCCNc1ncc2cc(-c3cc(OC)cc(OC)c3)c(NC(=O)NC(C)(C)C)nc2n1 [PD173074] (first compound 2 µM, partner dose 0.5 µM) showed a cell count of 95.6%.
In turn, `C=C(c1ccc(C(=O)O)cc1)c1cc2c(cc1C)C(C)(C)CCC2(C)C` [Bexarotene] + COc1ccc(-c2ccc3c(N4CCOCC4)nc(N4C[C@@H](C)O[C@@H](C)C4)nc3n2)cc1CO [KU0063794] (first compound 10 µM, partner dose 0.1 µM) registered a cell count of 80.8%.
On the same count and under the same terms, as for `NC1(c2ccc(-c3nc4ccn5c(=O)[nH]nc5c4cc3-c3ccccc3)cc2)CCC1` + c1cc(-c2cnn3cc(-c4ccc(OCCN5CCCCC5)cc4)cnc23)ccn1 [Dorsomorphin] (first compound 2 µM, partner dose 2 µM), the figure is 81.7%.
On the same count and under the same terms, as for `CN(c1ncccc1CNc1nc(Nc2ccc3c(c2)CC(=O)N3)ncc1C(F)(F)F)S(C)(=O)=O` + O=S(=O)(c1ccccc1)N(CC(F)(F)F)c1ccc(C(O)(C(F)(F)F)C(F)(F)F)cc1 [T0901317] (first compound 0.4 µM, partner dose 7 µM), the figure is 70.8%; as for `C=C(c1ccc(C(=O)O)cc1)c1cc2c(cc1C)C(C)(C)CCC2(C)C` [Bexarotene] + O=C1NC(=O)/C(=C/c2ccc(-c3ccc(F)cc3O)o2)S1 [AS252424] (first compound 10 µM, partner dose 5 µM), 90.9%; as for `CN(c1ncccc1CNc1nc(Nc2ccc3c(c2)CC(=O)N3)ncc1C(F)(F)F)S(C)(=O)=O` + COc1cc2c(Oc3ccc4[nH]c(C)cc4c3F)ncnc2cc1OCCCN1CCCC1 [cediranib] (first compound 0.4 µM, partner dose 2 µM), 79.9%.
The same measure, in the same setting: then `CCCS(=O)(=O)Nc1ccc(F)c(C(=O)c2c[nH]c3ncc(Cl)cc23)c1F` + CCCCCCCCCCCC1=C(O)C(=O)C=C(O)C1=O [Embelin] (first compound 0.4 µM, partner dose 6 µM), with 96%.
With `CCCS(=O)(=O)Nc1ccc(F)c(C(=O)c2c[nH]c3ncc(Cl)cc23)c1F` + Cc1cc(N2CCOCC2)cc2[nH]c(-c3c(NC[C@@H](O)c4cccc(Cl)c4)cc[nH]c3=O)nc12 [BMS536924] (first compound 0.4 µM, partner dose 1 µM), the cell count was 81.5%.
Molecule `C=C(c1ccc(C(=O)O)cc1)c1cc2c(cc1C)C(C)(C)CCC2(C)C` [Bexarotene] + Cn1cc(/C=C2\C(=O)Nc3cccnc32)c2ccccc21 [GW441756] (first compound 10 µM, partner dose 2 µM) came in with a cell count of 73.6%.
Turning to `C=C(c1ccc(C(=O)O)cc1)c1cc2c(cc1C)C(C)(C)CCC2(C)C` [Bexarotene] + C[C@@H]1CCN(C(=O)CC#N)C[C@@H]1N(C)c1ncnc2[nH]ccc12 [CP690550] (first compound 10 µM, partner dose 5 µM), the cell count amounted to 85.3%.
Same read-out and setting: then `C=C(c1ccc(C(=O)O)cc1)c1cc2c(cc1C)C(C)(C)CCC2(C)C` [Bexarotene] + N#Cc1c(O)c2c(-c3ccc(-c4ccccc4O)cc3)csc2[nH]c1=O [A769662] (first compound 10 µM, partner dose 10 µM), with 87.6%; and `C=C(c1ccc(C(=O)O)cc1)c1cc2c(cc1C)C(C)(C)CCC2(C)C` [Bexarotene] + Cc1cc([N+](=O)[O-])ccc1NS(=O)(=O)c1cc(Cl)ccc1Cl [FH535] (first compound 10 µM, partner dose 5 µM), with 69.4%; and `CCCS(=O)(=O)Nc1ccc(F)c(C(=O)c2c[nH]c3ncc(Cl)cc23)c1F` + COc1cc2c(Oc3ccc4[nH]c(C)cc4c3F)ncnc2cc1OCCCN1CCCC1 [cediranib] (first compound 0.4 µM, partner dose 2 µM), with 89.8%.
The molecule `C=C(c1ccc(C(=O)O)cc1)c1cc2c(cc1C)C(C)(C)CCC2(C)C` [Bexarotene] + CCN(CC)CCCCNc1ncc2cc(-c3cc(OC)cc(OC)c3)c(NC(=O)NC(C)(C)C)nc2n1 [PD173074] (first compound 10 µM, partner dose 0.5 µM) came in with a cell count of 104%.
In turn, `C=C(c1ccc(C(=O)O)cc1)c1cc2c(cc1C)C(C)(C)CCC2(C)C` [Bexarotene] + CC(C)CCN1c2nc(Nc3cc(F)c(O)c(F)c3)ncc2N(C)C(=O)C1C [BID1870] (first compound 10 µM, partner dose 1 µM) came in with a cell count of 75.5%.
Still for that read-out and setting: as for `CS(=O)(=O)c1ccc(C(=O)Nc2ccc(Cl)c(-c3ccccn3)c2)c(Cl)c1` [vismodegib] + O=C(Nc1ccccc1)c1cc([N+](=O)[O-])ccc1Cl [GW9662] (first compound 5 µM, partner dose 10 µM), the figure is 88.8%; as for `CS(=O)(=O)c1ccc(C(=O)Nc2ccc(Cl)c(-c3ccccn3)c2)c(Cl)c1` [vismodegib] + c1cc(-c2cnn3cc(-c4ccc(OCCN5CCCCC5)cc4)cnc23)ccn1 [Dorsomorphin] (first compound 5 µM, partner dose 2 µM), 52.1%.

The values above are taken from the supplement of paper PMC4604168 (melanoma cell lines).
